Experimental data as given in patent publication US20190135918A1 (ICHNOS SCIENCES, published 2019).

Columns and labels:
[1] = molecular target: T1, human CD3 epsilon 1-26_Fc fusion protein (human); assay: SPR, scFv-Fc format, graded relative to chimeric SP34; one grade for human and cynomolgus protein
T1 construct: also called human CD3 1-26_Fc fusion protein

[2] = molecular target: T2, cynomolgus monkey CD3 epsilon 1-26_Fc fusion protein (cynomolgus monkey); assay: as above
T2 construct: also called cynomolgus CD3 epsilon 1-26 Fc fusion protein

Row | binding result [1] | binding result [2] | Binder
1 | binds | binds | VH2/VL21 (scFv, also called humanized SP34 VH2/VL21 scFv-Fc fusion) scFv-Fc: EVQLVESGGGLVQPGGSLRLSCAASGFTFNTYAMNWVRQAPGKGLEWVARIRSKYNNYATYYADSVKSRFTISRDDSKNTLYLQMNSLRAEDTAVYYCVRHGNFGNSYVSWFAYWGQGTTVTVSSGGGGSGGGGSGGGGSEIVVTQSPATLSVSPGERATLSCRSSTGAVTTSNYANWVQEKPGQAFRGLIGGANKRAPGVPARFSGSLSGDEATLTISSLQSEDFAVYYCALWYSNLWVFGQGTKLEIKGGGGT[not shown - human IgG1 Fc]
2 | binds | binds | VH5/VL32 (scFv, also called humanized SP34 VH5/VL32 scFv-Fc fusion; hSP34 H5/L32 scFv-Fc) scFv-Fc: EVQLVESGGGLVQPGGSLRLSCAASGFTFNTYAMNWVRQAPGKGLEWVARIRSKYNNYATYYADSVKGRFTISRDDSKNTLYLQMNSLRAEDTAVYYCVRHGNFGNSYVSYFAYWGQGTTVTVSSGGGGSGGGGSGGGGSEIVVTQSPATLSVSPGERATLSCRSSTGAVTAANYANWVQEKPGQAFRGLIGGANKRAPGVPARFSGSLSGDEATLTISSLQSEDFAVYYCALFYSNLWVFGQGTKLEIKGGGGT[not shown - human IgG1 Fc]
